# Test results: PubChem BioAssay AID2147 (National Center for Advancing Translational Sciences (NCATS), 2009)
# Several values for one entry are separate records, joined by “and”; a condition that tells them apart may be missing. Identical values can stand only once. Screen size: about 230,000 compounds; about 3,600 (1.6%) were called active. The shares of active, inactive and inconclusive entries below differ from those in the screen. Calls follow the shape of the dose curve; as a rule, active = well fitted inhibition curve with a large enough effect (not every such curve was filed as active); inconclusive = small, poorly fitted or top-dose-only effect, or another doubt; inactive = no such curve, though single readings can be large or run the other way. Potencies beside an inconclusive call are fits to weak or partial responses and may not hold up.
# Target: Lysine-specific demethylase 4E (Homo sapiens) (UniProt B2RXH2)
# Experiment: qHTS Assay for Inhibitors of Human Jumonji Domain Containing 2E (JMJD2E)
# Settings: JMJD2E catalytic domain, FDH-coupled NADH fluorescence (FDH is formaldehyde dehydrogenase); series mostly up to 57.1 µM
# Also: nearly all actives have a fitted effect of over 50% in size.
# Potency is read from the fitted curve at half-maximal effect; tags tell the direction and shape of the fitted curve.
# Sequence of UniProt B2RXH2 (B2RXH2 whole entry, looked up, the tested form may be a part): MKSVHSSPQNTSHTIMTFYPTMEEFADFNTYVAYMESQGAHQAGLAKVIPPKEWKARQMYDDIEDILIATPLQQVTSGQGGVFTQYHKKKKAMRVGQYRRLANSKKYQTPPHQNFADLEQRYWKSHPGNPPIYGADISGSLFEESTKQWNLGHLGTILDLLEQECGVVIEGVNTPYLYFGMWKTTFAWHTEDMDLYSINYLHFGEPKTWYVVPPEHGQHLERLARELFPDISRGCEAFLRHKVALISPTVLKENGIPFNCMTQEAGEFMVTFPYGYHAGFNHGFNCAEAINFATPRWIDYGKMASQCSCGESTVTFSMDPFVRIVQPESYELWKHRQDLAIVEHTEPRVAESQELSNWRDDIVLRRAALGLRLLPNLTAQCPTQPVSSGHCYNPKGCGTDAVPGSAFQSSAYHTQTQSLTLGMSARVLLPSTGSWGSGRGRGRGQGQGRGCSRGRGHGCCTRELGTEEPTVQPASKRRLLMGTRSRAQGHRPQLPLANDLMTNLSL
row,SMILES,Potency
1,COc1cccc(/C=N/Nc2cc(Cl)nc(C)n2)c1O,"inconclusive: 15.8 µM [inhibitor, partial curve]"
2,CCOc1ccccc1N(CC(=O)NCCOC)C(=O)CCC(=O)Nc1ccccn1,"inconclusive: 0.178 µM [inhibitor, full curve]"
3,CC1(C)CC(NC(=O)CSc2ccccc2)CC(C)(C)N1,"inconclusive: 6.31 µM [inhibitor, single point]"
4,O=C1c2ccccc2NC(c2ccccn2)N1NS(=O)(=O)c1ccccc1 (configuration not stated),"inconclusive: 25.1 µM [inhibitor, partial curve]"
5,O=C(CSc1nc2ccccc2c(=O)n1-c1ccccc1)NC(=O)CN1CCCC1=O,inactive
6,C[C@H]1[C@H](C)CC[C@]2(C(=O)O)CC[C@]3(C)C(=CCC4[C@@]5(C)C[C@@H](O)[C@H](O)[C@@](C)(CO)[C@@H]5CC[C@]43C)[C@H]12 (some centres not stated),inactive
7,O=C(O)C1CCN(C(=O)Cc2ccccc2)CC1,inactive
8,CC(C)c1ccc(NC(=S)NCc2ccc3c(c2)OCO3)cc1,inactive
9,Cc1nn(-c2ccc(C(=O)O)cc2)c(C)c1Oc1ccccc1O,inactive
10,O=C1/C(=N\S(=O)(=O)c2cccs2)C([n+]2ccccc2)=C([O-])c2ccccc21,"inconclusive: 10 µM [inhibitor, partial curve]"
11,CCc1c(C)[nH]n(-c2nc(-c3cccc([N+](=O)[O-])c3)cs2)c1=O,inactive
12,COc1ccc(CCNc2oc(COc3ccccc3F)nc2C#N)cc1OC,inactive
13,COC(=O)CSc1nc2ccccn2c(=O)c1C=O,"inconclusive: 17.8 µM [inhibitor, partial curve]"
14,Cc1ccc(Oc2cc(NC(=O)CCCn3nc([N+](=O)[O-])c(Cl)c3C)cc([N+](=O)[O-])c2)cc1,inactive
15,Cc1onc(C(=O)N2CCOCC2)c1[N+](=O)[O-],inactive
16,CC(=O)NC(Cc1ccccc1)C(=O)NC1CCN(C(=O)NC2CCCCC2)CC1 (configuration not stated),"inconclusive: 39.8 µM [inhibitor, single point]"
17,O=C(Nc1nnc(-c2ccc(Cl)cc2)o1)Nc1ccccc1F,"inconclusive: 25.1 µM [inhibitor, single point]"
18,COc1ccc(C(C(=O)NC2CCCC2)N(CCN(C)C)C(=O)c2snc(C(N)=O)c2N)cc1 (configuration not stated),"inconclusive: 31.6 µM [inhibitor, partial curve]"
19,O=C1NC(c2ccccc2Cl)Nc2ccccc21 (configuration not stated),"inconclusive: 25.1 µM [inhibitor, partial curve]"
20,CCN(CCn1cccn1)C(=O)CCc1nnc(-c2ccc3c(c2)OCO3)o1,"inconclusive: 35.5 µM [inhibitor, single point]"
21,CCOCC(=O)Nc1c(C(=O)Nc2ccccc2OC)oc2ccccc12,"inconclusive: 6.31 µM [inhibitor, single point]"
22,CCN(CC)CCN1C(=O)c2ccccc2NC1c1ccc(Br)cc1 (configuration not stated),"inconclusive: 31.6 µM [inhibitor, partial curve]"
23,COC(=O)c1nn(-c2ccc(OC)cc2)c(=O)cc1Sc1ccc(C)cc1,inactive

row,SMILES,Potency
1,COc1ccc(-c2[nH]ncc2CNCC(C)(C)N2CCOCC2)cc1F,inactive
2,CC(COc1ccc(/C=C/c2ccccc2)cc1)[N+](C)(C)C (configuration not stated),"inconclusive: 39.8 µM [inhibitor, single point]"
3,COc1cc(/C=N/Nc2cccc3cccnc23)cc(OC)c1O,"inconclusive: 15.8 µM [inhibitor, partial curve]"
4,CN1CCc2c(sc3nc(NN)n(Cc4ccccc4)c(=O)c23)C1,"inconclusive: 20 µM [inhibitor, partial curve]"
5,COc1ccc(C2CC(c3cccs3)=NN2C(=O)CSc2nncn2C)cc1OC (configuration not stated),"inconclusive: 39.8 µM [inhibitor, single point]"
6,C=CCN=C1NN=C(c2cc(C)n(CCOC)c2C)CS1,"inconclusive: 25.1 µM [inhibitor, single point]"
7,COCc1cc(C)nc(SCC[N+](C)(C)CC(=O)Nc2cccc(C(F)(F)F)c2)c1C#N,"inconclusive: 39.8 µM [inhibitor, single point]"
8,c1ccc(C[n+]2csc3ccccc32)cc1,"inconclusive: 35.5 µM [inhibitor, single point]"
9,S=C(NCCN1CCOCC1)N/N=C/c1ccccc1,inactive
10,Cc1ccc(Nc2nc3ccccc3n3nnnc23)cc1,"inconclusive: 28.2 µM [inhibitor, single point]"
11,COCCNC(=S)N/N=C(\C)c1ccc(O)cc1,inactive
12,COc1cc2cc3c4cc(OC)c(OC)cc4cc[n+]3c(C)c2cc1OC,"inconclusive: 12.6 µM [inhibitor, partial curve] and inconclusive: 28.2 µM [inhibitor, partial curve]"
13,COc1ccc(CNC(=O)COC(=O)/C=C/c2ccc(Cl)cc2)cc1,"inconclusive: 39.8 µM [inhibitor, single point]"
14,O=C(COC(=O)c1c2c(nc3ccccc13)CCCC2)Nc1ccc2c(c1)OCO2,"inconclusive: 20 µM [inhibitor, single point]"
15,COC(=O)c1cc(=O)n(Cc2ccccc2)c(=NCc2ccccc2)s1,"inconclusive: 39.8 µM [inhibitor, single point]"
16,N=C1C(c2nc3ccccc3s2)=C(O)CN1NC(=O)c1c[nH]c2ccccc12,"inconclusive: 28.2 µM [inhibitor, partial curve]"
17,CN1CCN(c2cc3c(c4c2[nH]c2ccccc24)C(=O)CC(C)(C)C3)CC1,"inconclusive: 28.2 µM [inhibitor, partial curve]"
18,CCOC(=O)Cn1c(=O)n(C2CCCC2)c(=O)c2ccccc21,"inconclusive: 31.6 µM [inhibitor, single point]"
19,CCN(C(=O)CSc1cc(-c2ccccc2)c2ccc(OC)cc2n1)C1CCS(=O)(=O)C1 (configuration not stated),"inconclusive: 25.1 µM [inhibitor, partial curve]"
20,COc1cccc(C(=O)COC(=O)C(C)N2C(=O)c3ccccc3C2=O)c1 (configuration not stated),inactive
21,Cc1nc2cc(NC(=O)N(C)c3ccc4ccccc4c3)ccc2o1,"inconclusive: 31.6 µM [inhibitor, partial curve]"
22,O=C(Nc1cccc(C(F)(F)F)c1)Nc1ccc(N2CCCC2)c(S(=O)(=O)Nc2ccccc2Cl)c1,"inconclusive: 35.5 µM [inhibitor, partial curve]"
23,O=C(Oc1ccc(C(=S)N2CCOCC2)cc1)c1ccc(Br)cc1,inactive

row,SMILES,Potency
1,O=C(O)c1cc(-c2ccc(/C=N/Nc3ccc([N+](=O)[O-])cn3)o2)ccc1Cl,"inconclusive: 39.8 µM [inhibitor, single point]"
2,CCCN1Cc2cccc(C(=O)Nc3cc(OC)cc(OC)c3)c2C1=O,"inconclusive: 39.8 µM [inhibitor, single point]"
3,CCOC(=O)Cn1nnnc1CN(Cc1ccc(OC)cc1)Cc1cc2cc(CC)ccc2[nH]c1=O,"inconclusive: 39.8 µM [inhibitor, single point]"
4,O=C(N/N=C/c1ccc(O)cc1)c1ccc(COc2cc(Cl)ccc2Cl)o1,"inconclusive: 35.5 µM [inhibitor, single point]"
5,CC(=O)C1=C(O)C(=O)N(Cc2cccnc2)C1c1ccc(O)cc1 (configuration not stated),"inconclusive: 35.5 µM [inhibitor, single point]"
6,COc1cccc(-c2cc(=O)c3cc(O)ccc3o2)c1,inactive
7,CCOC(=O)c1cnc2ccc(OCC)cc2c1N1CCN(c2ccccc2OC)CC1,inactive
8,O=C(N/N=C/c1ccc(-c2cccc(C(F)(F)F)c2)o1)c1ccccc1O,"inconclusive: 10 µM [inhibitor, partial curve]"
9,COC(=O)c1cc(O)c(O)c(O)c1,active: 15.8 µM
10,CCCN(CCC)CCCNC(=S)Nc1ccc2nc3n(c(=O)c2c1)CCCCC3,"inconclusive: 39.8 µM [inhibitor, single point]"
11,CCOc1cccc(C(=O)NC(=S)Nc2ccc(Cl)cc2C(=O)O)c1,"inconclusive: 25.1 µM [inhibitor, partial curve]"
12,O=C(NCc1ccco1)c1cccnc1-c1nc2ccccc2s1,"inconclusive: 22.4 µM [inhibitor, partial curve, poor fit]"
13,CCOC(=O)N1CCN(C2=Nc3cccc4cccc2c34)CC1,"inconclusive: 35.5 µM [inhibitor, single point]"
14,C=CCNC(=S)NNC(=O)c1cccn(Cc2cccc(Cl)c2)c1=O,"inconclusive: 39.8 µM [inhibitor, single point]"
15,Cc1cc(C(=O)OCC(=O)c2ccc3c(c2)NC(=O)CO3)c2ccccc2n1,"inconclusive: 25.1 µM [inhibitor, single point]"
16,COC(=O)c1ccc(C(C2C(=O)CC(C)(C)CC2=O)C2C(=O)CC(C)(C)CC2=O)cc1,"inconclusive: 17.8 µM [inhibitor, single point]"
17,C=CCNc1nc2c3ccccc3n(C(C)=O)c2s1,"inconclusive: 35.5 µM [inhibitor, single point]"
18,Cc1ccc(S(=O)(=O)[N-]c2nc3ccccc3nc2-n2cc[n+](Cc3ccccc3)c2)cc1,"inconclusive: 35.5 µM [inhibitor, partial curve]"
19,COc1cc2cc(CN(CCO)S(=O)(=O)c3ccccc3)c(=O)[nH]c2cc1OC,"inconclusive: 28.2 µM [inhibitor, partial curve]"
20,O=C1c2ccccc2NC(c2ccc3c(c2)OCO3)N1O (configuration not stated),"inconclusive: 39.8 µM [inhibitor, single point]"
21,CC1=C(C#N)C(/C=N/OCc2ccc(F)cc2Cl)CC(=O)N1 (configuration not stated),"inconclusive: 8.91 µM [inhibitor, partial curve]"
